Reference: the supplement of paper PMC11417369
± gives the standard deviation of the averaged measurements. Some of the results follow.

Each sequence was assayed on PfAP2-EXP AP2 domain (GST-tagged) (assay: gcPBM binding intensity (ln(normalized median fluorescence intensity)); higher = stronger DNA binding).
Method in brief: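 Plasmodium falciparum DNA-binding domains carrying a GST tag were expressed in E. coli and applied for 1 h, at about 25 μg on average, to an Agilent 4 × 180k array. The array held primer-extended double-stranded 36-bp intergenic genomic probes together with negative controls, and binding took place in 1× PBS with 1% milk, 0.2 mg/ml BSA, 0.5% salmon testes DNA and 0.03% Triton X-100. An Alexa488 anti-GST antibody detected bound protein, and the array was scanned at 488 nm. Binding intensity is taken as the highest Masliner-normalised natural-log median intensity across replicate spots of either probe orientation.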

Sequence	gcPBM binding intensity (ln)
AAATTTTTTATGAACACACAAATACACGCACTCAAA [CACACA_site7286]	8.91 ± 0.36
TAAAATATATAAAACTGTACATTTTAAAGGCACAAC [XGTACX_site8342]	9.12 ± 0.38
AATAATAAAATAAAGGCATGCACAATATGCTATAAA [TGCATGCA_site645]	9.19 ± 0.3
TTTTTTTTTTTTTGCACACACCATATTTATAGAAAT [CACACA_site5772]	8.76 ± 0.23
TAAAATTAATTTCTGTTGCACTTATTATTAATTAAC	8.84 ± 0.4
ATATTATACCCGTGTACACATTATAACCATATATAA [CACACA_site5933]	8.96 ± 0.23
TATATGTATAGAAAATGTACATATAAATATATATAT [XGTACX_site3420]	9.265 ± 0.021
TTTTTACTATTTATATGACTAAAAATATATTGAATA [CACACA_negctrl_site188]	8.14 ± 0.39
TAAATTAATAAACAAGTGCATATATATATATATATA	10.2 ± 0.38
GTCATATTAATATGTACACACATATTTATATTTATA [CACACA_site6798]	8.65 ± 0.22
CAATTTATTTTTATTACACACTATCCAAGTAATTTC [CACACA_site7402]	8.51 ± 0.29
CAAGCACACGGACACACACACACACGCGCACGCACA [CACACA_site6307]	8.57 ± 0.45
TTTTATGTAACATCACGTACTTATATTTAAGTATTC [XGTACX_site7459]	8.79 ± 0.32
AATATAATATAATGCACACATAAAACAAAAAAAAAA [CACACA_site3012]	8.82 ± 0.47
AAATATATCATACAAAGTACTTGGAATTAATATATA [XGTACX_site8907]	8.36 ± 0.43
TCTTTTAAATAACAACATAAATAAATAAATAAATAA [GTGCAC_negctrl_site319]	8.89 ± 0.071
GTTGATACATGAAGCTGTACATAATATTTGTCATTT [XGTACX_site8628]	8.62 ± 0.39
TAATTTTTCCAACTTTGTACAGATATATTAATAAAA [XGTACX_site7856]	8.37 ± 0.49
AAAAATAGACAAAAGAGTACAAGAAAAAAAGGGTTC [XGTACX_site7843]	9.01 ± 0.55
GGAAAATGAAAAACAAAAAAAAAAAAAAAAAAATGA [TGCATGCA_negctrl_site432]	8.41 ± 0.9
ATATTCCTACATACAACACACGACGTTCTCATAAGA [CACACA_site231]	8.71 ± 0.43
TCTTTTTAGATATATACACACCGTGTCTACCTATAC [CACACA_site7551]	8.52 ± 0.33

Sequence	gcPBM binding intensity (ln)
ACATCTGTTATTTGTGGTACTAAAAAAATATATAGT [XGTACX_site8322]	8.65 ± 0.23
TTACAATTAATAAAGTGTACTTAACTATTATATATA [XGTACX_site481]	8.13 ± 0.18
TTTTAAAGTTGTGAGCTTCATTTTTATTTATATGTA [CACACA_negctrl_site1505]	8.39 ± 0.5
ATATATATATATGTCTGTACATAAAAAATAATAAAT [XGTACX_site3122]	10 ± 0.36
TTGATCTATAATAATACACACTTACATAATTAATTA [CACACA_site6273]	8.3 ± 0.35
ATTTTTATTTTTATTTGTACTTATATATTCTTAAGC [XGTACX_site4122]	8.71 ± 0.43
ATCATATTTATGTTGGTGCATTATGCATGGATTTTA [GTGCAC_site9795]	8.845 ± 0.035
TTTTTAAATATAAACAAAAAAAAAAAATATATCAAT [XGTACX_negctrl_site328]	8.54 ± 0.5
AATACCCAAGGACACACACACACATATATATATATA [CACACA_site8345]	10.2 ± 0.26
ATAATATAAATACAAACACACAATTGTGTCCACATT [CACACA_site6920]	8.86 ± 0.25
TTTTTATTTAATAGTTGTACATTGAAAAATATGTAT [XGTACX_site3025]	8.46 ± 0.38
TGATTAAATAAATATATATATTTATATATTATACAG [CACACA_negctrl_site1596]	8.11 ± 0.33
CAAATAAATATTAAAAGTACACACAGATACACTAAT [XGTACX_site3749]	8.81 ± 0.3
GCTCTATCAAAAAAATGTACACATATTATCATTCAT [XGTACX_site143]	8.55 ± 0.3
TATATATATATATATGTGCACTGGACATATTTTTAT [GTGCAC_site9721]	10.1 ± 0.48
TTTACAAAAAATTATACACACACGTACAGATAAATA [CACACA_site4678]	8.81 ± 0.44
ACCCATAAAAATTATGCACACTTAATAAAGCGAAAT [CACACA_site5722]	8.62 ± 0.36
ATAATTTATTTTAAAAGTACTCAATTTGCTTTTCTC [XGTACX_site5749]	8.51 ± 0.3
TCCTCATTTTATCATACACACTTGTTTATATGGGTG [CACACA_site4650]	8.74 ± 0.42
AAATAATTAAACATATGTACATATTATATATATATA [XGTACX_site6774]	9.8 ± 0.085
TATATTTATTATAATTGTACATAAAATAAACTAAGA [XGTACX_site4318]	8.41 ± 0.39
ATATACATTTAAATGTGTACATAATAAAATAAAAAA [XGTACX_site8170]	8.89 ± 0.19

Sequence	gcPBM binding intensity (ln)
CAAAAAAAAAAAAAAACACACATTAAATTAGAAAGA [CACACA_site7271]	8.4 ± 0.59
AATATTTATATTTAGTGTACAGAAATAAAAAAAAAA [XGTACX_site6066]	8.49 ± 0.21
GCTAATTTATTTTGCAGTACATATATAATAATATAT [XGTACX_site478]	8.37 ± 0.16
AAATATATATAAATGAGTACTTATGGTAACATATAT [XGTACX_site6362]	8.64 ± 0.33
ATAAATAATTATAATTGTACACATATATATATATAC [XGTACX_site3998]	8.7 ± 0.33
TTCCACATTTTACAGACACACACAATTTATATTACG [CACACA_site8572]	8.72 ± 0.42
AAAAAATATTGAAGTACACACATTATGAACTTTTTT [CACACA_site1733]	8.36 ± 0.23
AGAGCATAATAAAACACACACATACATACCTATATA [CACACA_site6566]	8.65 ± 0.45
TGTTTTTATAATATTAGTACATAATATACATAATTC [XGTACX_site2787]	8.46 ± 0.33
AATAAATTAATTTTGGGTACATATATATATATATAT [XGTACX_site3807]	10.2 ± 0.23
TTTTGTTTCTATATAAGATGGAAATATAAACTTGTA [CACACA_negctrl_site82]	8.22 ± 0.4
TTAAGATCCTAAAAAACACACAATTGTGAATAATAA [CACACA_site3872]	8.69 ± 0.53
GTAAGTTGTGCATTCACACACATATATATATATATA [CACACA_site3303]	10.2 ± 0.28
TATATATATATATATACATGCATATATATAATATAT [TGCATGCA_site763]	10.1 ± 0.52
TAAAAAAATTTAACATGTACAAATATTGAAAAGGAC [XGTACX_site7608]	9.42 ± 0.33
ATTAAAAAAGAATATACACACCAAAACTGTTTGTTA [CACACA_site4687]	8.09 ± 0.4
AGAAAAAAAAAAAAAAAAAAAAAATTGAATATATAT [TGCATGCA_negctrl_site55]	8.13 ± 0.41
ATATATTTTTACCATACACACATATAACAAATATAT [CACACA_site7706]	8.75 ± 0.44
TTTATTATCTTATTCACACACATATATATATATATA [CACACA_site2869]	10.2 ± 0.41
GAAGAATAAATATGCACACATGCATATATTTTTACA [CACACA_site3459]	8.515 ± 0.035
TACAATTCGTAATACACACACATATATATATATATT [CACACA_site3751]	8.62 ± 0.36
TCGAACATTAACATAACACACATATAGATTTATATA [CACACA_site7380]	8.29 ± 0.42

Sequence	gcPBM binding intensity (ln)
TATTATATATATAGGTGTACGCATTTGTCCTTTATA [XGTACX_site1385]	8.77 ± 0.34
AAACTTATGTTTACATGTACAGAACTTTATATTATG [XGTACX_site4843]	8.58 ± 0.31
TTGTATGCTTCCCGACTACATTATGCCATAAATGTA [TGCATGCA_negctrl_site136]	8.71 ± 0.45
TTATTCTTTAACTAAAATTATATATATATATTATAC [CACACA_negctrl_site1597]	8.38 ± 0.34
AATAAAAATATATCCACACACATATATAAATATGTA [CACACA_site6415]	8.16 ± 0.36
TTAAGAATATTTTCATGTACTCATTTTTTTTGTTAT [XGTACX_site1814]	8.58 ± 0.3
ATTGTAATAAATTGTAGTACATGTAAGGTTTTATTT [XGTACX_site1005]	8.71 ± 0.29
ATAACTTATTTTTAAAGTACATTATTATATATATAT [XGTACX_site1620]	9.54 ± 0.26
ATTACATATGTGAGTTGTACTATAAATATATAATAT [XGTACX_site3718]	8.88 ± 0.5
TTTTTGATATTAAAGGGTACATTATTTACAAAAAAA [XGTACX_site5284]	8.29 ± 0.34
AAAACAAACATTACACGTACAAAACAAGTTATAGAC [XGTACX_site6320]	8.91 ± 0.38
ATTCTTTTATTTAGTAGTACATTTGTATTTTATTCA [XGTACX_site5790]	8.85 ± 0.42
GATCCTGGTTCTTGTGGTACTTGTTCATTTGTTATA [XGTACX_site7164]	8.91 ± 0.52
CTGCCTTCCATACCCACACACTTCCCATATATTTTA [CACACA_site5491]	9.16 ± 0.47
ATGCTTTTTTATAAAAGTACATAAAGTTTTTACACT [XGTACX_site7307]	8.44 ± 0.21
TTTTTTATTGTGAAACTGATATTATATTTTTTATAA [GTGCAC_negctrl_site559]	8.13 ± 0.3
TAAACATTTTTAATTTTGTAAAATTTTAAATAAAAA [XGTACX_negctrl_site612]	8.06 ± 0.38
TGAATATTTTATGATTGTACATATTATAATAAACAT [XGTACX_site6113]	8.45 ± 0.34
ACAAACAAAGAAAGAACACACATACACAAGATACCT [CACACA_site7353]	8.68 ± 0.66
AATATTTTAATGCACACACACAAAAAAAAAAAAAAA [CACACA_site7374]	8.54 ± 0.4
AATCCTTTACGACACACACACAAAAAAAAAAAAAAA [CACACA_site6449]	8.23 ± 0.35
TGTTGGCAGGTGAATGCATGCATATAAGTCTATCTG [TGCATGCA_site781]	9.95 ± 0.39
